40 compounds from the antibiotic and cytotoxicity screens of Wong et al. (2023) can be followed below.

Some of the results follow.

The test system of the assay is S. aureus RN4220. Nature of the assay: growth inhibition call (relative growth <= 0.2). To be noted: 50 µM.
As for `CCC(=O)OC(CC(=O)O)C[N+](C)(C)C.[Cl-]` (stereo not given), the growth inhibition call is “inactive”. The result for `COc1ccc(S(=O)(=O)Nc2ccc3c(c2)C(=O)N([C@H](C)CO)C[C@H](C)[C@@H](CN(C)S(=O)(=O)c2ccc(Cl)cc2)OCCCC[C@@H](C)O3)cc1` reads “inactive”; that for `C[C@@H]1CN([C@H](C)CO)C(=O)c2cc(NC(=O)CCC(F)(F)F)ccc2O[C@@H](C)CCCCO[C@H]1CN(C)C(=O)Nc1cccc2ccccc12`, “inactive”; that for `C[C@@H]1CN([C@@H](C)CO)C(=O)CCCn2cc(nn2)CO[C@@H]1CN(C)S(=O)(=O)c1ccc(Cl)cc1`, “inactive”. With `NC[C@@](O)(c1ccc(Cl)cc1)c1ccc(-c2cn[nH]c2)cc1`, the growth inhibition call was “inactive”. Then `C[C@@H]1CCCCO[C@@H](CN(C)C(=O)C2CCCCC2)[C@@H](C)CN([C@@H](C)CO)C(=O)c2cc(NS(=O)(=O)c3ccccc3)ccc2O1`, with “inactive”; and `C[C@@H]1CN([C@@H](C)CO)C(=O)c2cc(C#CC3(O)CCCC3)cnc2O[C@@H]1CN(C)S(=O)(=O)c1ccccc1`, with “inactive”. As for `C[C@H](CO)N1C[C@H](C)[C@H](CN(C)C(=O)Nc2ccc(C(F)(F)F)cc2)Oc2ccc(NC(=O)Nc3ccc(F)cc3)cc2CC1=O`, the growth inhibition call was “inactive”. Take `COC(=O)[C@H](Cc1ccccc1)N1CC2=C[C@H](C3CC3)n3c(=O)n(C)c(=O)n3[C@@H]2[C@H]1[C@H](O)Cc1ccccc1`: the growth inhibition call was “inactive”. Regarding `Cc1ccc(S(=O)(=O)N(C)C[C@H]2Oc3ccc(NS(=O)(=O)c4c(C)noc4C)cc3C(=O)N([C@@H](C)CO)C[C@@H]2C)cc1`, the growth inhibition call was “inactive”. Then `C=C(C(=O)O[C@H]1CC=C(C)C[C@H](O)[C@H]2[C@H](C)C(=O)O[C@@H]2/C=C/1C)[C@@H]1CCC(=C)[C@@H]2C[C@H](O[C@@H]3O[C@H](COC(=O)CC(=O)O)[C@@H](O)[C@H](O)[C@H]3O)C(=C)[C@@H]2C1`, with “inactive”. `O=C(OC1Cc2c(O)cc(O)cc2OC1c1cc(O)c(O)c(O)c1-c1c(C2Oc3cc(O)cc(O)c3CC2OC(=O)c2cc(O)c(O)c(O)c2)cc(O)c(O)c1O)c1cc(O)c(O)c(O)c1` (stereo not given): the growth inhibition call is “inactive”. With `C[C@H]1CN([C@@H](C)CO)C(=O)Cc2cc(NS(=O)(=O)c3ccc(Cl)cc3)ccc2O[C@@H]1CN(C)Cc1ccc(C(=O)Nc2ccccc2N)cc1`, the growth inhibition call was “inactive”. For the compound `Cc1noc(C)c1NC(=O)Nc1ccc2c(c1)CC(=O)N([C@@H](C)CO)C[C@H](C)[C@@H](CN(C)S(=O)(=O)c1cn(C)cn1)O2`, the growth inhibition call was “inactive”. Turning to `COc1ccc(NC(=O)Nc2ccc3c(c2)C(=O)N([C@@H](C)CO)C[C@H](C)[C@@H](CN(C)Cc2ccccc2)OCCCC[C@@H](C)O3)cc1`, the growth inhibition call is “inactive”. For the compound `Cc1ccc(S(=O)(=O)N(C)C[C@H]2Oc3c(NC(=O)c4cnccn4)cccc3C(=O)N([C@H](C)CO)C[C@H]2C)cc1`, the growth inhibition call was “inactive”. On to `O=C1[C@@H]2CCCN2C(=O)[C@@H]2CCCN12`, for which the growth inhibition call was “inactive”.

Turning to `C[C@H](CO)N1C[C@H](C)[C@H](CN(C)S(=O)(=O)c2ccc(F)cc2)Oc2ccc(NS(=O)(=O)c3cn(C)cn3)cc2C1=O`, the growth inhibition call is “inactive”. For `CCCN(C)C[C@H]1OCCCC[C@H](C)Oc2ccc(NC(=O)Cc3ccccc3)cc2C(=O)N([C@@H](C)CO)C[C@H]1C`, the growth inhibition call was “inactive”. `CN(C)C(=O)C[C@@H]1CC[C@H]2[C@@H](COC[C@H](O)CN2S(=O)(=O)c2ccccc2)O1`: the growth inhibition call was “inactive”.

Take `NC(=O)OCC(COC(N)=O)c1ccccc1`: the growth inhibition call is “inactive”. Regarding `N=C(NO)c1cccc(C(=N)NO)n1`, the growth inhibition call is “inactive”. With `C[C@@H]1CN([C@H](C)CO)S(=O)(=O)c2ccc(C#Cc3ccc(F)cc3)cc2O[C@H]1CN(C)S(=O)(=O)c1ccc(F)cc1`, the growth inhibition call was “inactive”.

On to `Cc1noc(C)c1NC(=O)N(C)C[C@@H]1OCCCC[C@@H](C)Oc2ccc(NC(=O)Nc3ccccc3)cc2C(=O)N([C@H](C)CO)C[C@@H]1C`, for which the growth inhibition call is “inactive”. With `C[C@H]1CCCCO[C@@H](CN(C)Cc2ccc(C(=O)O)cc2)[C@@H](C)CN([C@@H](C)CO)C(=O)c2cc(NC(=O)Cc3ccccc3)ccc2O1`, the growth inhibition call is “inactive”.

Consider `CCCCCCCCCCCCCCCCCCCCCCO`, for which the growth inhibition call is “inactive”. Turning to `C[C@@H]1CN([C@H](C)CO)C(=O)Cc2cc(NC(=O)CCC(F)(F)F)ccc2O[C@H]1CN(C)C(=O)Nc1cccc2ccccc12`, the growth inhibition call was “inactive”. Turning to `Cc1ccc(S(=O)(=O)Nc2ccc3c(c2)C(=O)N([C@@H](C)CO)C[C@@H](C)[C@H](CN(C)Cc2ccc4c(c2)OCO4)OCCCC[C@H](C)O3)cc1`, the growth inhibition call is “inactive”. The result for `Cc1ccc(S(=O)(=O)N(C)C[C@H]2Oc3ccc(NS(C)(=O)=O)cc3C(=O)N([C@H](C)CO)C[C@H]2C)cc1` reads “inactive”. The result for `C[C@@H]1CN([C@@H](C)CO)C(=O)c2cc(NC(=O)NC3CCCCC3)ccc2O[C@@H](C)CCCCO[C@H]1CN(C)S(=O)(=O)c1ccc(F)cc1` reads “inactive”. The result for `COCC#Cc1ccc2c(c1)O[C@H](CN(C)C(=O)c1ccccc1)[C@H](C)CN([C@H](C)CO)S2(=O)=O` reads “inactive”.

For the compound `CN1C(=O)c2cc(NC(=O)c3cnccn3)ccc2OC[C@@H]2O[C@@H](CC(=O)NCC3CCCCC3)CC[C@H]21`, the growth inhibition call was “inactive”. `C[C@H](CO)N1C[C@H](C)[C@@H](CN(C)Cc2ccc3c(c2)OCO3)Oc2c(NC(=O)c3ccncc3)cccc2C1=O`: the growth inhibition call was “inactive”. `C[C@@H]1CN([C@@H](C)CO)C(=O)CCCn2cc(nn2)CO[C@@H]1CN(C)C(=O)Nc1ccc2c(c1)OCO2`: the growth inhibition call is “inactive”. In the case of `CN(C)CCCCNC(=O)[C@H]1C[C@H]2C(=O)N3CCC[C@H]3C(=O)N2[C@H]1c1cccc(OCCO)c1`, the growth inhibition call is “inactive”. Turning to `Cc1noc(C)c1S(=O)(=O)N(C)C[C@H]1Oc2ccc(NS(=O)(=O)c3cccs3)cc2CC(=O)N([C@@H](C)CO)C[C@@H]1C`, the growth inhibition call is “inactive”. As to `C[C@H](N)C12CC3CC(CC(C3)C1)C2`, the growth inhibition call was “inactive”. Then `Cl.[NaH]`, with “inactive”; and `Cc1ccc2c(=O)c3ccccc3n(CCCN)c2c1C`, with “inactive”.

With `CC(C)(C)NC(=O)N1CCC(CN)CC1`, the growth inhibition call was “inactive”.
